The RNAGym collection of RNA variant scans (doi:10.7554/elife.90254)
The source gives no read counts; variants with many changes may rest on few reads.

B1: LINE1-mini (parent)
chain: GGCAGAGCUCAACACAGCGUGGCAAAGUGGCUGUGGCUAGACUGCC

Variants of: B1
Assay: self-cleavage, relative activity (ratio to wild type); higher = more cleavage; in vitro, sequencing; the parent is a self-cleaving ribozyme

| Variant | self-cleavage |
| --- | --- |
| C15A G19A G27C G33C | 0.01 |
| C15A G19A G29U G35A G36U C37U | 0.03 |
| C15A G19C A25U A26C C46G | 0.16 |
| C15A G19C A26U U28G G36A C37U | 0.03 |
| C15A G19C C23U C42U | 0.01 |
| C15A G19C G21A A25U G40U | 0 |
| C15A G19U A24G G40U | 0.02 |
| C15A G19U A25G | 0.04 |
| C15A G19U A39U | 0.02 |
| C15A G19U C37U C42U | 0.04 |
| C15A G19U C42U | 0.38 |
| C15A G19U G21C | 0.11 |
| C15A G19U G29A U32A G40C | 0.03 |
| C15A G19U G36U U43A | 0.03 |
| C15A G19U G40U | 0.04 |
| C15A G19U U20G A26C | 0.12 |
| C15A G19U U32G | 0.02 |
| C15A G21A C23G G29C | 0.32 |
| C15A G21A G22A C23U | 0.18 |
| C15A G21A G22C | 0.11 |
| C15A G21C A39G | 0.02 |
| C15A G21C U28G | 0.11 |
| C15A G21C U38A G44U | 0.03 |
| C15A G21U A25G | 0.07 |

| Variant | self-cleavage |
| --- | --- |
| C15A G21U C31A | 0.03 |
| C15A G21U C46G | 0.02 |
| C15A G21U G29A G44C | 0.04 |
| C15A G21U G29U U32C C37U C45G C46G | 0.01 |
| C15A G22A C37A | 0.06 |
| C15A G22A C45A | 0.06 |
| C15A G22A G30U C37U C45A | 0.09 |
| C15A G22A G33U A41U | 0.96 |
| C15A G22C A24C G27C | 0.04 |
| C15A G22C U32G A39U | 0.01 |
| C15A G22C U34C G35C | 0.02 |
| C15A G22U A24G | 0.45 |
| C15A G22U A25C U28A | 0.02 |
| C15A G22U C31A U43A C46U | 0.02 |
| C15A G27A A39C C45U | 0.04 |
| C15A G27A G36C C45A | 0.02 |
| C15A G27A U32C G35A | 0.06 |
| C15A G27C G30U C45A | 0.01 |
| C15A G27C G33A G40U | 0.09 |
| C15A G27U C31A U32G | 0.02 |
| C15A G27U C37U | 0.02 |
| C15A G27U G33A | 0.19 |
| C15A G27U G35C U38C | 0 |
| C15A G27U U28A C46G | 0.03 |

| Variant | self-cleavage |
| --- | --- |
| C15A G27U U32C G35A | 0.04 |
| C15A G27U U34G G35C | 0.02 |
| C15A G29A G33A G35C | 0.03 |
| C15A G29A G44A | 0.04 |
| C15A G29A U43G G44C | 0.03 |
| C15A G29C C31U G33C G35C | 0.03 |
| C15A G29C G36U | 0.04 |
| C15A G29U C31G U38G | 0.05 |
| C15A G29U C37A | 0.05 |
| C15A G30A U32G | 0.05 |
| C15A G30A U38G | 0.01 |
| C15A G30C C37U | 0.03 |
| C15A G30C C45A | 0.03 |
| C15A G30U A41C | 0.03 |
| C15A G33A C37U A41U | 0.17 |
| C15A G33A G40U | 0.04 |
| C15A G33U A39C | 0.16 |
| C15A G33U G35C U38C | 0.07 |
| C15A G33U G36A | 0.05 |
| C15A G35A A39U C46A | 0.02 |
| C15A G36A C37G C45A C46U | 0 |
| C15A G36U G40C | 0.08 |
| C15A G36U U38G | 0.08 |
| C15A G40U A41C | 0.05 |

| Variant | self-cleavage |
| --- | --- |
| C15A G40U C46U | 0.04 |
| C15A G44C C45U | 0.02 |
| C15A U20A C31G | 0.04 |
| C15A U20A G21U U32C C45U | 0.03 |
| C15A U20A G30U G33A G36A G44U C46U | 0.06 |
| C15A U20C G33A | 0.06 |
| C15A U20C U32A | 0.01 |
| C15A U20G C23G G30C G33U | 0.29 |
| C15A U20G C23U C31A | 0.02 |
| C15A U20G U28C | 0.02 |
| C15A U28A G30A G40U A41G G44A | 0.03 |
| C15A U28A G40A | 0.07 |
| C15A U28A G44U | 0.01 |
| C15A U28C G33U A39G | 0.08 |
| C15A U28C G40A C42U | 0 |
| C15A U28G C31A | 0.05 |
| C15A U28G C37G | 0.07 |
| C15A U28G G33A | 0.03 |
| C15A U28G U34C C46A | 0.06 |
| C15A U32A C42U C46U | 0.04 |
| C15A U32C A39G | 0.06 |
| C15A U32C C45A | 0.08 |
| C15A U32C C46A | 0.06 |
| C15A U32C G35U U38G G44U | 0.02 |

| Variant | self-cleavage |
| --- | --- |
| C15A U32C U38G C42U | 0.02 |
| C15A U32G G35U U38G | 0.02 |
| C15A U32G U38A | 0.01 |
| C15A U34C C37A | 0.02 |
| C15A U34G G35C A41U | 0.04 |
| C15A U34G U38A A39U | 0.05 |
| C15A U38A C42G C46A | 0.01 |
| C15A U38C C46U | 0.02 |
| C15A U38G A41C U43G | 0.03 |
| C15A U43A G44A | 0.11 |
| C15A U43G G44A | 0.15 |
| C15G A16C G27C | 0.03 |
| C15G A16C G44C | 0.04 |
| C15G A16G G22C | 0.01 |
| C15G A16U A24U | 0.04 |
| C15G A16U G17A U28C U32A | 0 |
| C15G A16U G17A U28C U34G | 0 |
| C15G A16U G19C G44A | 0.01 |
| C15G A16U G21A G33C G40A C42A | 0.01 |
| C15G A16U G22U U32A | 0.14 |
| C15G A16U G40A | 0.02 |
| C15G A24C A26C G36U | 0.1 |
| C15G A24C G29A U34C G40A G44U | 0 |
| C15G A24C G40U | 0.02 |

| Variant | self-cleavage |
| --- | --- |
| C15G A24C G44U | 0.03 |
| C15G A24C U32A G40U | 0 |
| C15G A24G G29U | 0.03 |
| C15G A24U G29C C45A | 0.02 |
| C15G A25C C31G A41U C45U | 0.02 |
| C15G A25C C37U | 0.03 |
| C15G A25G C37G | 0.02 |
| C15G A25G G30U G33U | 0.03 |
| C15G A25G U32G | 0.01 |
| C15G A25U G36U U43G | 0 |
| C15G A25U U32C A41C | 0.01 |
| C15G A25U U34A G40C | 0 |
| C15G A26C G36C C37A | 0.02 |
| C15G A26C U32G C42G | 0.01 |
| C15G A39G C42G | 0.03 |
| C15G A41C C46A | 0.03 |
| C15G C18A A26U | 0.02 |
| C15G C18A A39U | 0.04 |
| C15G C18A U32C | 0.02 |
| C15G C18A U43C | 0.03 |
| C15G C18G G27U U43A | 0.03 |
| C15G C18U C31U C42U | 0.04 |
| C15G C18U U28G G30U | 0.02 |
| C15G C23A A25G C42U | 0 |

| Variant | self-cleavage |
| --- | --- |
| C15G C23A A26G | 0.08 |
| C15G C23A A26G U38G | 0.34 |
| C15G C23A C46G | 0.09 |
| C15G C23A G35A | 0.05 |
| C15G C23A G40A | 0.03 |
| C15G C23G A41G | 0.02 |
| C15G C23G G44U C46U | 0.02 |
| C15G C23G U43C | 0.03 |
| C15G C23U A25G U43A C45U | 0.02 |
| C15G C23U C31A G33A | 0.05 |
| C15G C23U G27U U28A | 0.04 |
| C15G C31A G33C G35C | 0.04 |
| C15G C31A G36U | 0.06 |
| C15G C37G G40A | 0.01 |
| C15G C45A C46A | 0.01 |
| C15G G17A A26C U34C | 0.06 |
| C15G G17A A41C | 0.07 |
| C15G G17A C23A G40A U43G | 0 |
| C15G G17A C31G G36A | 0.04 |
| C15G G17A G19U G33U U34A | 0.1 |
| C15G G17A G27U U32A A39C | 0.01 |
| C15G G17A G36U | 0.02 |
| C15G G17A U20A G22C G27C | 0.01 |
